Some of the results follow. No stated cut-off is given here; in the data, active = 3.2 or more and inactive = the rest. Only a few entries rise above the background.
Legend:
Test in all cases: enrichment score (SH2-bound / input frequency) (ratio); bacterial display of known human phosphotyrosine sites (pTyr-Var adds point mutants) read by sequencing; higher = stronger binding; tyrosines were phosphorylated by kinases first
Conditions in all cases: peptide library: Human pTyr
[1] = target: SHP2 C-SH2 domain E139D
[2] = target: SHP2 C-SH2 domain wild-type
[3] = target: SHP2 N-SH2 domain L43F
[4] = target: SHP2 N-SH2 domain T42A
[5] = target: SHP2 N-SH2 domain T52S
[6] = target: SHP2 N-SH2 domain wild-type

Measured: enrichment score
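Further: displayed peptides selected on beads carrying the immobilized SH2 domain, with library peptides lacking any tyrosine serving as negative controls.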

B1: GPDA_HUMAN_326 (peptide)
chain: FPLFMAVYKVCYEGQ
inactive: [1] 2.43 | [2] 2.21 | [3] 2.5 | [4] 2.18 | [5] 1.98 | [6] 2.63

B2: GRB2_HUMAN_209 (peptide)
chain: TGMFPRNYVTPVNRN
inactive: [1] 0.65 | [2] 0.547 | [3] 0.463 | [4] 0.515 | [5] 0.475 | [6] 0.884

B3: GRB2_HUMAN_7 (peptide)
chain: GMEAIAKYDFKATAD
inactive: [1] 0.927 | [2] 0.78 | [3] 0.837 | [4] 0.702 | [5] 0.897 | [6] 0.778

B4: GTF2I_HUMAN_248 (peptide)
chain: EESEDPDYYQYNIQA
inactive: [1] 1.83 | [2] 1.67 | [3] 1.5 | [4] 1.55 | [5] 2.11 | [6] 1.88

B5: GTF2I_HUMAN_503 (peptide)
chain: EAHPNDLYVEGLPEN
inactive: [1] 1.1 | [2] 0.68 | [3] 0.734 | [4] 0.717 | [5] 0.907 | [6] 0.855

B6: GUCY1B3_HUMAN_192 (peptide)
chain: ESKEEDFYEDLDRFE
inactive: [1] 1.16 | [2] 1.6 | [3] 1.43 | [4] 1.39 | [5] 1.45 | [6] 2.14

B7: HCK_HUMAN_522_YA (peptide)
chain: ATATESQYQQQPGGG
inactive: [1] 0.673 | [2] 0.667 | [3] 0.626 | [4] 0.604 | [5] 0.654 | [6] 0.627

B8: HCLS1_HUMAN_140 (peptide)
chain: KSAVGFDYKGEVEKH
inactive: [1] 0.683 | [2] 0.726 | [3] 0.785 | [4] 0.672 | [5] 0.766 | [6] 0.764

B9: HCLS1_HUMAN_222 (peptide)
chain: MEAPTTAYKKTTPIE
inactive: [1] 0.778 | [2] 0.911 | [3] 1.14 | [4] 0.734 | [5] 0.819 | [6] 0.968

B10: HCLS1_HUMAN_378 (peptide)
chain: EPEPENDYEDVEEMD
inactive: [1] 0.971 | [2] 1.19 | [3] 0.956 | [4] 0.966 | [5] 1.12 | [6] 1.35

B11: HGS_HUMAN_308 (peptide)
chain: APPASSLYSSPVNSS
inactive: [1] 0.647 | [2] 0.474 | [3] 0.512 | [4] 0.607 | [5] 0.54 | [6] 0.626

B12: HGS_HUMAN_334_YA (peptide)
chain: ARALNRNYWEKKQEE
inactive: [1] 1.21 | [2] 1.3 | [3] 1.3 | [4] 1.37 | [5] 1.37 | [6] 1.65

B13: HNF4A_HUMAN_23 (peptide)
chain: SAALDPAYTTLEFEN
inactive: [1] 0.906 | [2] 0.76 | [5] 3.19 | [6] 0.963
active: [3] 3.79 | [4] 4.06

B14: HNF4A_HUMAN_288 (peptide)
chain: IDDNEYAYLKAIIFF
inactive: [1] 2.23 | [2] 1.82 | [3] 1.97 | [4] 1.81 | [5] 1.9 | [6] 2.12

B15: HNRH1_HUMAN_246 (peptide)
chain: GYGGYDDYNGYNDGY
inactive: [1] 0.577 | [2] 0.546 | [3] 0.491 | [4] 0.443 | [5] 0.648 | [6] 0.593

B16: HNRH1_HUMAN_246_YA (peptide)
chain: GAGGADDYNGANDGA
inactive: [1] 0.539 | [2] 0.486 | [3] 0.49 | [4] 0.546 | [5] 0.56 | [6] 0.545

B17: AKT1_HUMAN_176 (peptide)
chain: EKATGRYYAMKILKK
active: [2] 3.31 | [5] 3.43 | [6] 4.27
inactive: [1] 2.8 | [3] 3.18 | [4] 2.43

B18: 2ABD_HUMAN_305_YA (peptide)
chain: KFSHSGRYMMTRDAL
inactive: [1] 2.98 | [2] 3.06 | [3] 2.93 | [4] 3.06
active: [5] 3.38 | [6] 3.92
